Data on 41 compounds can be found in ChEMBL document CHEMBL4888484, “Replenishing the malaria drug discovery pipeline: Screening and hit evaluation of the MMV Hit Generation Library 1 (HGL1) against asexual blood stage Plasmodium falciparum ,using a nano luciferase reporter read-out” (2022).

In all, about 150,000 compounds went through this assay and about 540 (0.36%) showed an effect of 50% or more. Some of the results follow.

In this experiment the test system is Plasmodium falciparum. As to the kind of experiment: Primary screen in NF54 nanoGlo assay, in single point, at 2uM, 72h; a lower Z score goes with more inhibition. Format: functional, Erythrocyte. The conditions noted are these: timepoint 72 hour.
Turning to `C[C@H]1CN(CCO)CCN1Cc1ccc(Cl)cc1-n1cncn1`, the % Inhibition (commonly the relative decrease from the control value, in per cent) is reported as -2% and the Z score is on record as 0.24.

Consider `Cc1cc(C)c(NC(=O)Cn2cc(-c3nc(-c4ccc(Cl)cc4)no3)ccc2=O)c(C)c1`, for which the “% Inhibition” value came to 1% and the Z score is -0.11.

For the compound `CCc1ccc(CNC(=O)[C@@H]2Cn3cccc3C(=O)N2)cc1`, the “% Inhibition” value is 2% and the Z score is given as -0.28.

Take `COc1ccc(C)c2sc(N(CCN3CCOCC3)C(=O)c3ccn(C)n3)nc12`: the “% Inhibition” value is given as -18% and the Z score worked out at 3.16.

On to `Cc1ccccc1CN1CCNC(=O)[C@@H]1c1c(C)nn(-c2ccccc2)c1C`, for which the “% Inhibition” value was -2% and the Z score came out at 0.43.

Turning to `COC(=O)CN(C(=O)c1cnc(OC)c(Cl)c1)c1cccc(C)n1`, the “% Inhibition” value is given as -6% and the Z score came to 0.99.

Regarding `Cc1nccc(NC(=O)N(CCO)CC(F)F)n1`, the “% Inhibition” value is reported as -10% and the Z score was 1.36.

On to `CCC(=O)Nc1ccc2c(c1)c(=O)n(-c1ccccc1)n2CC(=O)Nc1c(C)cccc1C`, for which the “% Inhibition” value was 3% and the Z score was -0.37.

For the compound `Cn1nccc1C(=O)NC[C@H]1CCCN(C(=O)c2ccc3scnc3c2)C1`, the “% Inhibition” value is listed as -7% and the Z score was 1.06.

On to `Cc1cccc(CN2CCC[C@@]3(CCN(C(=O)c4oc(C)cc4C)C3)C2)c1`, for which the “% Inhibition” value is listed as 7% and the Z score is recorded as -1.2.

As to `COc1cccc(-c2nn([C@@H](C)C(=O)Nc3c(C)cc(C)cc3C)c(=O)c3noc(C)c23)c1`, the “% Inhibition” value is -8% and the Z score is 0.76.

Take `C#CCCCn1ncc2c(OC)nc(N)nc21`: the “% Inhibition” value amounted to 1% and the Z score was -0.09.

Consider `Cn1cc(C(=O)N[C@H]2CCN(c3ccc(F)c(Cl)c3)C2)cn1`, for which the “% Inhibition” value is listed as -3% and the Z score was found to be 0.57.

Take `O=C(Cc1cccs1)NC[C@H]1CCCN(C(=O)c2nc3ncccn3n2)C1`: the “% Inhibition” value was -8% and the Z score stood at 1.56.

Take `CCOC(=O)c1cnc(N2CCN(Cc3ccno3)CC2)s1`: the “% Inhibition” value is -13% and the Z score was 1.82.

`O=S(=O)(NCC1(CO)CCC1)C1CC1`: the “% Inhibition” value was 0% and the Z score turned out to be 0.04.

Regarding `O=S(=O)(NCc1ccc(-n2cncn2)nc1)N1CCCCC1`, the “% Inhibition” value is -14% and the Z score was 2.21.

As to `Cn1cc(-c2ccccc2)c(NC(=O)NCCc2ccc(F)c(F)c2)n1`, the “% Inhibition” value is listed as -2% and the Z score was 0.3.

With `CC(C)c1ncc(CN2CCC3(CCC(=O)N(CCN(C)C)C3)CC2)cn1`, the “% Inhibition” value was found to be 3% and the Z score is listed as -0.43.

For the compound `Cn1nc(-c2ccccc2)c(CN(C[C@H]2CCCO2)C(=O)c2ccccc2Cl)c1Oc1ccc(Cl)cc1`, the “% Inhibition” value came out at 3% and the Z score is -0.44.

For `Cc1nnsc1CN(C)C(=O)CN1C(=O)OC[C@@H]1c1ccccc1`, the “% Inhibition” value is on record as -10% and the Z score turned out to be 1.14.

Consider `CCc1ncncc1C(=O)NS(=O)(=O)c1ccc(C2CCCCC2)cc1`, for which the “% Inhibition” value is recorded as 22% and the Z score is given as -2.89.

For `Cc1noc(C)c1CC(=O)NC1(c2ccc(Cl)c(Cl)c2)CC1`, the “% Inhibition” value is given as 2% and the Z score is -0.16.

`Cc1cccc([C@H]2CCCN(C(=O)CCn3nnnc3C)C2)c1`: the “% Inhibition” value is -3% and the Z score was determined as 0.34.

For `CN1CCCN(CC(=O)N2CC[C@@H]3OCc4cccc(c4)Oc4cccc(c4)CCC(=O)N(C)CC(=O)N[C@@H]3C2)CC1`, the “% Inhibition” value is on record as -5% and the Z score was 0.7.

Regarding `O=C(Nc1cccc(OCC(F)F)n1)N1CCCC1C1CCCO1` (configuration not stated), the “% Inhibition” value is recorded as -9% and the Z score came out at 0.88.

For `COc1cc2c(cc1OC)[C@H](C)N(C(=O)c1ccc3c(c1)C(=O)N(c1cc(Cl)ccc1Cl)C3=O)CC2`, the “% Inhibition” value was -7% and the Z score is reported as 0.86.

In the case of `CC(C)OC(=O)N1CCC2(CC1)C[C@@H](c1ccccc1)C(=O)N(C1CC1)C2`, the “% Inhibition” value was -7% and the Z score is reported as 0.79.

With `Cc1cc(C(=O)N2CC(C)(C)[C@@H]2C2CC2)nc(C)n1`, the “% Inhibition” value was 5% and the Z score was -0.7.

As for `COCCNCCOc1cc(C)ccc1C`, the “% Inhibition” value was -7% and the Z score is recorded as 1.32.

Regarding `CS(=O)(=O)NCCN1C[C@@H]2CCCCN2c2ccccc21`, the “% Inhibition” value is 0% and the Z score is -0.08.

As for `CC1OCCC1NC(=O)N(Cc1ccccc1)CC(C)(C)O` (configuration not stated), the “% Inhibition” value stood at 4% and the Z score is given as -0.39.

Turning to `CC(N)C1CCN(C(=O)c2cc3c(s2)CCC3)C1` (configuration not stated), the “% Inhibition” value is recorded as -14% and the Z score is 1.35.

On to `Cc1ncc2c(c1-c1noc(-c3cn[nH]c3-n3cnnn3)n1)CCNC2`, for which the “% Inhibition” value is 5% and the Z score is on record as -0.82.

On to `O=C(NCC1(c2ccccc2)CC1)c1cc(C(F)(F)F)c[nH]c1=O`, for which the “% Inhibition” value is given as -7% and the Z score was 0.92.

As to `CN(Cc1cccc(=O)[nH]1)C(=O)c1cc2c(cn1)OCCO2`, the “% Inhibition” value was -14% and the Z score came out at 2.84.

Turning to `COC(=O)c1cc2c(ncn2C)c(F)c1Nc1ccccc1`, the “% Inhibition” value is reported as -11% and the Z score worked out at 1.44.

Take `O=C(N[C@H]1CCOC[C@@H]1OCC1CCC1)c1nc2ccccc2[nH]c1=O`: the “% Inhibition” value was -23% and the Z score stood at 3.81.

Regarding `CC(C)(C)c1nnc(CN2C(=O)NC3(CCC3)C2=O)o1`, the “% Inhibition” value came to 14% and the Z score is -1.69.

Consider `Cc1ccc(C)c(NC(=O)c2ccc3c(c2)nnn3Cc2ccccc2)c1`, for which the “% Inhibition” value was -10% and the Z score is listed as 1.

On to `COC1(Cn2cnc(-c3ccnn3C)c2[C@H]2CC23CC3)CCCC1`, for which the “% Inhibition” value is on record as -7% and the Z score was 1.32.
